Laboratory results from US20150239991A1 (GLENMARK PHARMACEUTICALS S A, published 2015).

Target: T1, human FcRn (human, UniProt P55899 in part; P61769 in part)
T1 construct: range 24-297;range 21-119; Alpha chain non-covalently associated with beta2-microglobulin; used as analyte at pH 6.0; also called human neonatal Fc receptor; soluble form of the extracellular region of the human FcRn
Assay: SPR on human FcRn at pH 6.0, steady state KD expressed as ratio to the unmodified IGHG1 control
Sequence of human FcRn (P55899 24-297 limits assumed, form in doubt, chain 1 of 2): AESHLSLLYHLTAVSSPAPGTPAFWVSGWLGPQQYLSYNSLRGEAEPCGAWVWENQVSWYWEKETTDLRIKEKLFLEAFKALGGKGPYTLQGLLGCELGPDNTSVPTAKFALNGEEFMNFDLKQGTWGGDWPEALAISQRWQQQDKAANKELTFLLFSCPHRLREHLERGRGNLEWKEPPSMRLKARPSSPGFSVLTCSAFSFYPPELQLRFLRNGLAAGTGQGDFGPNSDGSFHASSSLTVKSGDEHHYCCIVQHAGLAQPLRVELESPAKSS
Sequence of human FcRn (P61769 21-119 limits assumed, form in doubt, chain 2 of 2, further chain): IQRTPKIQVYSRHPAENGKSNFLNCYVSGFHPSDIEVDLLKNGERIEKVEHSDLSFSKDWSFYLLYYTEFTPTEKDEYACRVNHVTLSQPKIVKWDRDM

B1: anti-hCD19 homo-dimeric immunoglobulin with the M428G substitution (antibody, human IgG1, kappa)
heavy: QVQLVQSGGGVVQPGRSLRLSCAASGVSLPDYGVSWVRQAPGKGLEWVAVIWGSETTYYNSALKSRFTISRDNSKNTLYLQMNSLRAEDTAVYYCAKHYYYGGSYAMDYWGQGTLVTVSS[human IgG1 constant region with M428G (EU numbers) not given here]
light: DIQMTQSPSSLSASVGDRVTITCRASQDISKYLNWYQQKPGKAIKLLIYHTSRLHSGVPSRFSGSGSGTDFTLTISSLQPEDFATYYCQQGATLPYTFGPGTKVDIKRTVAAPSVFIFPPSDEQLKSGTASVVCLLNNFYPREAKVQWKVDNALQSGNSQESVTEQDSKDSTYSLSSTLTLSKADYEKHKVYACEVTHQGLSSPVTKSFNRGEC
notes: copies: 2 + 2
KD ratio (IGHG1/mutant): 0.45
